Data published in US20250270339A1 (Alector, published 2025).

How the values were obtained:
[1] = target: T1, Full length human TfR on CHO cells (human, UniProt P02786); experiment: FACS MFI
T1 construct: also called CHO + huTfR; CHO + hTfR

Cyno TfR ECD Avi-His = target: T2, Cyno TfR ECD Avi-His (cynomolgus macaque, UniProt Q5RDH6 89-760 (Pongo abelii entry), biotin on the Avi tag (BirA) where captured on streptavidin); experiment: ELISA OD450
T2 construct: also called Cyno TfR Avi-His; cyno TfR Avi-His
T2 chain: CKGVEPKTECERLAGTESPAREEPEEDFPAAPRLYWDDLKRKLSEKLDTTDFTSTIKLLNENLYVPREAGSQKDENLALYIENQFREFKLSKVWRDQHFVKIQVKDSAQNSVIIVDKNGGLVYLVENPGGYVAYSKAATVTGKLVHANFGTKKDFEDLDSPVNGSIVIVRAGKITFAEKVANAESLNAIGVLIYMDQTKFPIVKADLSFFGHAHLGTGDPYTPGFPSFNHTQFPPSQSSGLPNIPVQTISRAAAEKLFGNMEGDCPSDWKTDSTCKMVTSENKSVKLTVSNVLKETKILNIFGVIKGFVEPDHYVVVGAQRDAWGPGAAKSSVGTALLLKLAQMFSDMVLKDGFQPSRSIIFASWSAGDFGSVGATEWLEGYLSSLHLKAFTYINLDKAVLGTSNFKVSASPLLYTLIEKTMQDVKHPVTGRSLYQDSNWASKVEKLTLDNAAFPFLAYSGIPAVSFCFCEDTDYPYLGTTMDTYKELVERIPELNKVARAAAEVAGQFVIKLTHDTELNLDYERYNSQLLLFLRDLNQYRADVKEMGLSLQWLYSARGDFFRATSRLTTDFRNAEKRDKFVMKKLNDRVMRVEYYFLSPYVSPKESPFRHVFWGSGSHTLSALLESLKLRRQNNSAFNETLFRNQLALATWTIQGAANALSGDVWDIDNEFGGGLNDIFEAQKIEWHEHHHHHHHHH

[2] = target: T3, Mouse TfR (muTfR) ECD Avi-His (mouse, UniProt Q62351, biotin on the Avi tag (BirA) where captured on streptavidin); experiment: ELISA OD450
T3 construct: also called MuTfR Avi-His

[3] = target: T4, huTfR Apical Domain-Avi-His (human, biotin on the Avi tag (BirA) where captured on streptavidin); experiment: ELISA OD450
T4 construct: also called huTfR apical Avi-His; hTfR Apical
T4 chain: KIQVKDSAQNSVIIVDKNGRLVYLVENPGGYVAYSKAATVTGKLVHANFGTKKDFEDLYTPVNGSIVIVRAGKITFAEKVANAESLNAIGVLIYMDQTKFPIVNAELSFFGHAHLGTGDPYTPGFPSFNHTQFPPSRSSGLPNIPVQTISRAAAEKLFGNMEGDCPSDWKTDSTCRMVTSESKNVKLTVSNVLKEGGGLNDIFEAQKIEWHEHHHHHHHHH

T1 sequence (P02786 whole entry): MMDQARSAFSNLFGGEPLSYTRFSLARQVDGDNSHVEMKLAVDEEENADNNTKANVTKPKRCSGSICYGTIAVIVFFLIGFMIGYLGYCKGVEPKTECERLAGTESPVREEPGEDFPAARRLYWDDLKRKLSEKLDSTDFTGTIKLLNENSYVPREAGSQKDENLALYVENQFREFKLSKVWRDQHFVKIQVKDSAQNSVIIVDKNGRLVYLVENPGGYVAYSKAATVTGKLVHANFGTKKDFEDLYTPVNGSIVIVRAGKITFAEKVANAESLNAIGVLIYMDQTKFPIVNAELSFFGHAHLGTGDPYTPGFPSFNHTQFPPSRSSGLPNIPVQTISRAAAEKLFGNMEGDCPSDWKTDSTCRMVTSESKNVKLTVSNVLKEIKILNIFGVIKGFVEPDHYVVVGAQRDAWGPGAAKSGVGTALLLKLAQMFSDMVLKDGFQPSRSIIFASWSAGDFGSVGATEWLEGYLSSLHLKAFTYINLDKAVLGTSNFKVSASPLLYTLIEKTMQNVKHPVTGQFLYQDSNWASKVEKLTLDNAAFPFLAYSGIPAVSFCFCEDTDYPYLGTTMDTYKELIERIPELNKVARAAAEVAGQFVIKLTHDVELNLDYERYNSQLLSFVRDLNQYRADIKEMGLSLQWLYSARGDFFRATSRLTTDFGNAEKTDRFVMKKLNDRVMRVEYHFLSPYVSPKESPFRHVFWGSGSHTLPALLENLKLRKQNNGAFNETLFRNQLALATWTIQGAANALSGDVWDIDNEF

fold over CHO parental [1]: 278 fold
fold over isotype control (Cyno TfR ECD Avi-His): 1 fold
fold over isotype control [2]: 1 fold
fold over isotype control [3]: 40 fold
B2: TfR23 2+1 anti-TfR bispecific antibody (bispecific antibody, human IgG1, kappa)
heavy 1: EVRLLESGGGLVQPGGSLRLSCAASGFTFSNYAMGWVRQAPGKGLEWVSAISGSGGSTYYADSVKGRFTTSRDDSKNALYLQMNSLRAEDTAVYYCARGGPGWYAADVWGQGTTVTVSSASTKGPSVFPLAPSSKSTSGGTAALGCLVKDYFPEPVTVSWNSGALTSGVHTFPAVLQSSGLYSLSSVVTVPSSSLGTQTYICNVNHKPSNTKVDKKV[here human IgG1 Fc with changes without letters]GGGGSGGGGSGGGGSDVQLQESGPGLVKPSQSLSLTCTVTGYSITSDYAWNWIRQFPGNKLEWMGYISYSGSTSYNPSLKSRISITRDTSKNQFFLQLNSVTTEDTATYYCTSWGYRYLEDYWGQGTSVTVSSGGSEGKSSGSGSESKSTGGSQIVLTQSPAIMSASPGERVTMTCSASSSISSLHWYQQKPGTSPKKWIYDTSKLASGVPARFSGSGSGTSYSLAISSMEAEDAATYYCHQRSSYPWTFGGGTKLEIK
heavy 2: EVRLLESGGGLVQPGGSLRLSCAASGFTFSNYAMGWVRQAPGKGLEWVSAISGSGGSTYYADSVKGRFTTSRDDSKNALYLQMNSLRAEDTAVYYCARGGPGWYAADVWGQGTTVTVSS[here human IgG1 constant region with changes without letters]
light: DIQMTQSPSSLSASVGDRVTITCRASQSISSYLNWYQQKPGKAPKLLIYAASSLQSGVPSRFSGSGSGTDFTLTISSLQPEDFATYYCQQADLPAFAFGGGTKVEIKRTVAAPSVFIFPPSDEQLKSGTASVVCLLNNFYPREAKVQWKVDNALQSGNSQESVTEQDSKDSTYSLSSTLTLSKADYEKHKVYACEVTHQGLSSPVTKSFNRGEC
notes: 2+1

fold over CHO parental [1]: 305 fold
fold over isotype control (Cyno TfR ECD Avi-His): 1 fold
fold over isotype control [2]: 1 fold
fold over isotype control [3]: 38 fold
B4: TfR17 2+1 anti-TfR bispecific antibody (bispecific antibody, human IgG1, kappa)
heavy 1: EVRLLESGGGLVQPGGSLRLSCAASGFTFSNYAMGWVRQAPGKGLEWVSAISGSGGSTYYADSVKGRFTTSRDDSKNALYLQMNSLRAEDTAVYYCARGGPGWYAADVWGQGTTVTVSSASTKGPSVFPLAPSSKSTSGGTAALGCLVKDYFPEPVTVSWNSGALTSGVHTFPAVLQSSGLYSLSSVVTVPSSSLGTQTYICNVNHKPSNTKVDKKV[here human IgG1 Fc with changes without letters]GGGGSGGGGSGGGGSDVQLQESGPGLVKPSQSLSLTCTVTGYSITSDYAWNWIRQFPGNKLEWMGYISYSGSTSYNPSLKSRISITRDTSKNQFFLQLNSVTTEDTATYYCASWGYRYLEDYWGQGTSVTVSSGGSEGKSSGSGSESKSTGGSQIVLTQSPAIMSASPGEKVTMTCSASSSISSMHWYQQKPGTSPKRWISDTSKLASGIPARFSGSGSGTSYSLTISSMAAEDAAAYYCHQRSSYPWTFGGGTKLEIK
heavy 2: EVRLLESGGGLVQPGGSLRLSCAASGFTFSNYAMGWVRQAPGKGLEWVSAISGSGGSTYYADSVKGRFTTSRDDSKNALYLQMNSLRAEDTAVYYCARGGPGWYAADVWGQGTTVTVSS[here human IgG1 constant region with changes without letters]
light: B2 light
notes: 2+1

Second part, the binder before the results:

B1: TfR24 2+1 anti-TfR bispecific antibody (bispecific antibody, human IgG1, kappa)
heavy 1: EVRLLESGGGLVQPGGSLRLSCAASGFTFSNYAMGWVRQAPGKGLEWVSAISGSGGSTYYADSVKGRFTTSRDDSKNALYLQMNSLRAEDTAVYYCARGGPGWYAADVWGQGTTVTVSSASTKGPSVFPLAPSSKSTSGGTAALGCLVKDYFPEPVTVSWNSGALTSGVHTFPAVLQSSGLYSLSSVVTVPSSSLGTQTYICNVNHKPSNTKVDKKV[here human IgG1 Fc with changes without letters]GGGGSGGGGSGGGGSQVQLQQSGPELVKPGTSVKMSCKASGYTFTSYYIHWVKQRPGQGLEWIGWIYPGDDNTHYNENFKGKTTLTADKSSSTAYMLLSSLTSEDSAIYFCARDYYGRFAYWGQGTLVTVSAGGSEGKSSGSGSESKSTGGSDIVMTQSPSSLTVTAGERVTMSCKSSQSLLNSGNQKNYLTWFQQKPGQPPKLLIYWASTRESGVPDRFTGSGSGTDFTVTISSVQAEDLAVYYCQNDYGYPLTFGAGTKLELK
heavy 2: EVRLLESGGGLVQPGGSLRLSCAASGFTFSNYAMGWVRQAPGKGLEWVSAISGSGGSTYYADSVKGRFTTSRDDSKNALYLQMNSLRAEDTAVYYCARGGPGWYAADVWGQGTTVTVSS[here human IgG1 constant region with changes without letters]
light: B2 light
notes: 2+1
fold over CHO parental [1]: 11 fold
fold over isotype control (Cyno TfR ECD Avi-His): 1 fold
fold over isotype control [2]: 1 fold
fold over isotype control [3]: 3 fold

B3: TfR28 2+1 anti-TfR bispecific antibody (bispecific antibody, human IgG1, kappa)
heavy 1: EVRLLESGGGLVQPGGSLRLSCAASGFTFSNYAMGWVRQAPGKGLEWVSAISGSGGSTYYADSVKGRFTTSRDDSKNALYLQMNSLRAEDTAVYYCARGGPGWYAADVWGQGTTVTVSSASTKGPSVFPLAPSSKSTSGGTAALGCLVKDYFPEPVTVSWNSGALTSGVHTFPAVLQSSGLYSLSSVVTVPSSSLGTQTYICNVNHKPSNTKVDKKV[here human IgG1 Fc with changes without letters]GGGGSGGGGSGGGGSDVQLQESGPGLVKPSQSLSLTCTVTGYSITSDYAWNWIRQFPGNKLEWMGYISYSGSTSYNPSLRSRISITRDTSKNQFFLQLNSVTTEDTATYYCAIRGYRYEEDYWGQGTTLTVSSGGSEGKSSGSGSESKSTGGSQIVLTQSPAIMSASPREKVTMTCSASSSISSMHWYQQKPGTSPKRWIYDTSKLASGVPARFSGSGSGTSYSLTISSMEAEDAATYYCHQRSSYPWTFGGGTKLEIK
heavy 2: EVRLLESGGGLVQPGGSLRLSCAASGFTFSNYAMGWVRQAPGKGLEWVSAISGSGGSTYYADSVKGRFTTSRDDSKNALYLQMNSLRAEDTAVYYCARGGPGWYAADVWGQGTTVTVSS[here human IgG1 constant region with changes without letters]
light: B2 light
notes: 2+1
fold over CHO parental [1]: 438 fold
fold over isotype control (Cyno TfR ECD Avi-His): 1 fold
fold over isotype control [2]: 1 fold
fold over isotype control [3]: 39 fold

One block for each binder: values may come before it.
